Test results reported in the supplement of paper PMC11417369.
± gives the standard deviation of the averaged measurements. Some of the results follow.

Test system: PfAP2-LT AP2 domain (GST-tagged)
Assay: gcPBM binding intensity (ln(normalized median fluorescence intensity)); higher = stronger DNA binding
Summary of the method: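 GST-tagged P. falciparum DNA-binding domains, expressed in E. coli (about 25 μg on average), were applied for 1 h to an Agilent 4 × 180k array of primer-extended double-stranded 36-bp intergenic genomic probes plus negative controls. The binding buffer was 1× PBS with 1% milk, 0.2 mg/ml BSA, 0.5% salmon testes DNA and 0.03% Triton X-100. Bound protein was detected with Alexa488 anti-GST antibody and scanned at 488 nm. Binding intensity is the highest Masliner-normalised natural-log median intensity across replicate spots of either probe orientation.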

Row | Sequence | gcPBM binding intensity (ln)
1 | TTTTGAAGTAATACATGTACTTAAATTACTAAAAAA [XGTACX_site1955] | 8.46 ± 0.43
2 | ACTTTGCGTTAAAAGAGTACATAATATTTTTTTTTT [XGTACX_site7533] | 8.51 ± 0.42
3 | GCTTATTTTAATTCTTGTACTTATTTATATACAAAT [XGTACX_site2099] | 8.84 ± 0.36
4 | TTGAAAATTCTTAAGGCACACACATATATAATATAT [CACACA_site8088] | 9.07 ± 0.38
5 | TAATGGTGTTCATGTGGTACACTTTATAAATTGGCA [XGTACX_site729] | 8.66 ± 0.43
6 | AAACTAACTCTAACATGTACATATATATATATATAT [XGTACX_site6949] | 9.59 ± 0.057
7 | ATCACAAAAAAGTTCATACACACAACCTATTTATAT [CACACA_site2888] | 9.07 ± 0.37
8 | AAATCAAATTTTTAGAGTACTTAAGTTTTCTATATA [XGTACX_site7827] | 8.42 ± 0.44
9 | TAATATATTAATATATGTACATATTTATATATCTAC [XGTACX_site7117] | 8.81 ± 0.51
10 | TCCCCATATGTTTTGTGTACATATATATTTTTTTGT [XGTACX_site75] | 9.16 ± 0.48
11 | ATAAAGTCTATATTATGTACATATAATATAAATATT [XGTACX_site6703] | 8.65 ± 0.45
12 | AAAAAACTTCACATATGTACTTAAAAAAAATTAAAA [XGTACX_site2368] | 8.39 ± 0.47
13 | GAACATTACGTAAATAAATAAATAAAAATAAATACA [XGTACX_negctrl_site25] | 8.98 ± 0.54
14 | TATTGTCTTGTATATGCATGTAGACCAAATATGTAA [TGCATGCA_site9] | 8.6 ± 0.41
15 | CAAAAAAAAATCTGTAGTACTTATTAATATTGCTGT [XGTACX_site4767] | 8.63 ± 0.47
16 | CAAGGAACCAGACACACACACATAAATGTATATATA [CACACA_site752] | 9.62 ± 0.47
17 | TGATTATTATAATTTAGTACATAATATTTTATATAA [XGTACX_site6125] | 8.26 ± 0.38
18 | ATATATGGAAAGAGTAGTACTATTATAGGGGTGTTA [XGTACX_site6785] | 8.98 ± 0.35
19 | AAAACAAAAGAATTCACACATATATATATATATATA [CACACA_site4777] | 10.1 ± 0.16
20 | AAAATTAAACATACATCACACATGCATTATATTATG [CACACA_site5517] | 8.96 ± 0.4
21 | TTAAACGTACATAATACACACACATGTAGACATATA [CACACA_site8635] | 9.29 ± 0.36
22 | AAAATTAACGAGTGCACACATATTTAGATAAAATAC [CACACA_site2936] | 9.25 ± 0.37
23 | AAATAAGAGCGTAGCACACACGCATTTTATAAATGG [CACACA_site4571] | 9.19 ± 0.57

Row | Sequence | gcPBM binding intensity (ln)
24 | TCATATAAGTTTAGTAGTACTAAAAGTTAGAGAGAA [XGTACX_site3430] | 8.97 ± 0.57
25 | ATTTATTTTAAATAAGTGCAAAATGGTTATAAATAA | 8.58 ± 0.44
26 | ATAAATATTTTGTAAGCATGCTTTTAAAAAAAGAAA [TGCATGCA_site572] | 8.48 ± 0.49
27 | AAAATTTCAATAAATACACACATATAAATATAGATT [CACACA_site6893] | 8.9 ± 0.47
28 | ATGTACTATAGGCACACACACTCACATATATATATA [CACACA_site5745] | 9.62 ± 0.3
29 | TGAAAATATATAACGCGTACAAAAAGGAAATACAAT [XGTACX_site3534] | 9.28 ± 0.39
30 | AAATAGTTGTTAAAGGTGCACAATATGGATATAAGA | 9.14 ± 0.59
31 | TTTTTTTTTTTTTTTGCATGTTGAAAATAAAATTAT [TGCATGCA_site86] | 8.37 ± 0.23
32 | GGAATAACCAGACACACACACACATATAAATATGTA [CACACA_site7632] | 10.1 ± 0.41
33 | TAAATACAAGAACTGACACACATACATACTACATTT [CACACA_site5561] | 9.38 ± 0.28
34 | ATATATTTTTATATAGTGCAAGTAATAAAAAGGAAT | 8.82 ± 0.39
35 | GGAAAAAAATAAAATAAGTATTTTACATACATATTG [TGCATGCA_negctrl_site10] | 8.42 ± 0.52
36 | ATAACATTCAAAAAATGTACAAACATATGAATAAAT [XGTACX_site7013] | 8.97 ± 0.42
37 | ATATCATTTTATTTGTGTACTTAAAAAGTTGCAATG [XGTACX_site4099] | 8.67 ± 0.4
38 | TACCTATACAGACACACACACACACGCCCACAAAAA [CACACA_site6375] | 10.2 ± 0.37
39 | TTTTTATATTTATATAAATAAAAAAATAACAAAATG [XGTACX_negctrl_site231] | 8.29 ± 0.33
40 | TAAAATTAAACAAAAAAAAAGAAAAAAAAAAAAAAG [CACACA_negctrl_site1098] | 8.41 ± 0.59
41 | CTCCATATTAGACACACACACAAATGAAAAAAATAT [CACACA_site7420] | 9.56 ± 0.45
42 | TGAACATACATCAAAAGTACAAACTCGCATGTTATA [XGTACX_site3320] | 8.95 ± 0.42
43 | CCGCCATTGTACCATCCACACACATATATATATGTA [CACACA_site8866] | 9.46 ± 0.33
44 | AATGTAGACACATATGTACACACATATATATGTATA [CACACA_site9014] | 9.23 ± 0.47
45 | AATATTCTATATGATACATGCATGATGGAATAAAAA [TGCATGCA_site980] | 8.93 ± 0.3
46 | TTTTGGTATACGTAATTATATAATATGTTAATCAAT [CACACA_negctrl_site645] | 8.61 ± 0.36

Row | Sequence | gcPBM binding intensity (ln)
47 | TTTTTAAAAAGTAACACACACTCTTATATATAATGA [CACACA_site3618] | 8.97 ± 0.46
48 | AAAAAAAACAGACACACACACATAAATATAAATAAA [CACACA_site6214] | 9.74 ± 0.31
49 | TATACATATATATATATATATAGATATATTCACGTG [XGTACX_negctrl_site265] | 9.31 ± 0.21
50 | AAAATAATAATAAATGCATGTGTTGTTTACTAAGAA [TGCATGCA_site528] | 8.85 ± 0.42
51 | TGTTCAGTATTGCACACACACAACAAAATAAAAAAA [CACACA_site6314] | 9.64 ± 0.36
52 | ATATATATATATATATGTACTTAATGTTATTATATA [XGTACX_site4508] | 9.48 ± 0.028
53 | GAAATGTGATAATATACACACACGCATATATATATA [CACACA_site4332] | 9.88 ± 0.2
54 | ATTATATATATATTATGTACATATATTGAAGTGGAT [XGTACX_site5916] | 8.77 ± 0.44
55 | TACGAAATCATATGTACACACACATATATATATATA [CACACA_site5216] | 9.8 ± 0.14
56 | ACGGATTAAAAAATGTGTACGCACAAAAAAAAAAAT [XGTACX_site8259] | 9.14 ± 0.52
57 | TTCATATAATTCATCTGTACATATTGATAGTATGCA [XGTACX_site6386] | 8.72 ± 0.49
58 | TGTTTTATTTATTAAGCACACGCGATTTAAAAAATA [CACACA_site981] | 8.43 ± 0.38
59 | TCAAATGTGTAATCTTGTACACATTAAAAGAAAAAA [XGTACX_site8822] | 8.73 ± 0.49
60 | AATAATATATGGACATGTACATAATATATATTTTTT [XGTACX_site312] | 8.93 ± 0.47
61 | ATCAAAATTGTCATTACACACCTTTATTTTTATAAT [CACACA_site5071] | 8.95 ± 0.4
62 | AAGAAAAAGAATAACCTTATTTCTATATACTAATTT [TGCATGCA_negctrl_site477] | 8.46 ± 0.33
63 | TTTGTTCTTTTTGAAGTGCACTGAAATATAACAAAA | 8.33 ± 0.31
64 | AAAAAAACACACACATATATATATATATATATATAT [GTGCAC_negctrl_site498] | 10.2 ± 0.16
65 | TAATATATTAATATATGTACGTATTTTTATTAATAT [XGTACX_site5346] | 8.69 ± 0.35
66 | TTAAATAATTCTTTTAGTACACACGAATAAGCAGAT [XGTACX_site623] | 8.74 ± 0.42
67 | TATCTTATATATAAGTGTACGCAGATTCTTACGATA [XGTACX_site6058] | 8.54 ± 0.47
68 | ATAATTAATGATGTATGTACGGAATTTATATATTTG [XGTACX_site5685] | 8.7 ± 0.47
69 | ATAGTAATAGAATGATTGCACTTAAATTTTCCCTCT | 8.71 ± 0.3

Row | Sequence | gcPBM binding intensity (ln)
70 | GTATACATATTTATAATAATAAATGTCTTATATTTT [CACACA_negctrl_site688] | 8.61 ± 0.46
71 | TATGTATTAATGAGAACATGCAAAATAATAAACAAT [TGCATGCA_site362] | 8.95 ± 0.43
72 | ATATATCAAATAGACAAACACACAAAGGAAGAGTGA [CACACA_site3922] | 9.24 ± 0.47
73 | CATATACACGAACACACACACACACGCACAAAAAAA [CACACA_site6376] | 10.1 ± 0.24
74 | CACAGACACGGACACACACACACACCCAGACACATA [CACACA_site4357] | 10.1 ± 0.43
75 | ATATATATATATATATGTACATATGTCAACTGTCTA [XGTACX_site8636] | 10.1 ± 0.43
76 | CATACATACAAACACACACACATATATATACATACA [CACACA_site852] | 10.1 ± 0.38
77 | TTTCTTTTTTCACGTGCATGCCATTTAAGTATTAAT [TGCATGCA_site651] | 9.19 ± 0.47
78 | GAATTATAAGAATAAACACACAAGCTTAAAAAAAAA [CACACA_site1204] | 8.79 ± 0.51
79 | AGAATTCAACAATGTTGTACATACACACACACAAAA [XGTACX_site5035] | 9.56 ± 0.4
80 | TTTGTTTGGTTTTGGTGTACTTTTTTTTTTTTTTCT [XGTACX_site2050] | 9.03 ± 0.45
81 | ACATATGTATAATATGCACACGTCATTTTCCCCTTA [CACACA_site5194] | 9.29 ± 0.38
82 | ACTAAACTTATATGTACACACATATAACATTAATTT [CACACA_site2258] | 9.09 ± 0.37
83 | TTATTATTTGGTTATAGTACATAATATAATATATAT [XGTACX_site6911] | 8.57 ± 0.3
84 | TATATATATATGTATGCATGTTGTTTTTTATTTAAT [TGCATGCA_site343] | 9.13 ± 0.38
85 | CTATATTTCGTTGGACGTACAAATGTGATAATTAGG [XGTACX_site3232] | 8.66 ± 0.39
86 | CTAATTGTGTATACCTGTACATATATATATATATAT [XGTACX_site416] | 9.36 ± 0.028
87 | AATACAAAAAAAGGTACACACATAATATATTTATTA [CACACA_site2628] | 9.13 ± 0.45
88 | TTAACTTTTTTATATGCACACATAAACAAGGATATA [CACACA_site8932] | 8.79 ± 0.32
89 | TGTTATTCTACATATACACACAAATAACAATTTAAA [CACACA_site1824] | 8.66 ± 0.36
90 | AAAAAAAAAAAGAACACACACAGTGCACATTCGGTG [CACACA_site788] | 9.15 ± 0.38
